Where “and” joins values, the source holds several entries; their conditions need not be identical. Identical values can stand only once. The full ranking holds about 2,900 compounds; the median of “IRF Lucia reporter activity, fold change vs agonist alone” is about 0.9, and the highest 2% start at about 2.8. The list shows a part of the results.
Experiments:
RAW-Dual [1] = assay: IRF Lucia reporter activity, fold change vs agonist alone; cytotoxicity flag (confluency mask): not cytotoxic; higher = enhanced IRF activity
Method in brief: (§1)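 Reporter activity is given as fold change relative to agonist-alone wells. To measure it, 50 nL of library stock was pin-tooled onto RAW-Dual macrophages (50,000 cells/well, DMEM, 384-well plates), a PRR agonist followed 1 h later, and cells stayed at 37 °C, 5% CO2. Twenty hours on, supernatant was assayed for IRF (QuantiLuc luminescence) and NF-κB (QuantiBlue, 620 nm absorbance), and wells under 70% of agonist-control IncuCyte confluency in both mask sets were marked cytotoxic.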

RAW-Dual [2] = assay: IRF Lucia reporter activity, fold change vs agonist alone; higher = enhanced IRF activity; conditions: library stock concentration (final ~1000-fold dilution): 10 mM, agonist: MPLA (TLR4) […]
Method in brief: as §1

RAW-Dual [3] = assay: IRF Lucia reporter activity, fold change vs agonist alone; cytotoxicity flag (confluency mask): cytotoxic (confluency <70% of control); higher = enhanced IRF activity
Method in brief: as §1

[4] = agonist: 3'3'-cGAMP (STING) 10 ug/mL
[5] = cytotoxicity flag (confluency mask): cytotoxic (confluency <70% of control)
[6] = cytotoxicity flag (confluency mask): not cytotoxic

`Cc1cnc(NC(=O)Nc2cc(Br)c(C)cc2OCC2CNCCO2)cn1` (stereo not given) (library stock concentration (final ~1000-fold dilution): 10 mM) was tested, and the “IRF Lucia reporter activity” value (RAW-Dual [1]; [4]) was 1.01 and the “IRF Lucia reporter activity” value (RAW-Dual [1]; agonist: LPS (TLR4) 0.1 ug/mL) was 0.821.
For `CC(Oc1cc(-c2cnn(C3CCNCC3)c2)cnc1N)c1c(Cl)ccc(F)c1Cl` (stereo not given), the “IRF Lucia reporter activity” value (RAW-Dual [2]; [5]) was 0.0653 and the “IRF Lucia reporter activity” value (RAW-Dual [2]; [6]) was 0.0291.
For `CC(Oc1cc(-c2cnn(C3CCNCC3)c2)cnc1N)c1c(Cl)ccc(F)c1Cl` (stereo not given) (library stock concentration (final ~1000-fold dilution): 10 mM), the “IRF Lucia reporter activity” value (RAW-Dual [1]; [4]) was 0.023, the “IRF Lucia reporter activity” value (RAW-Dual [1]; agonist: LPS (TLR4) 0.1 ug/mL) was 0.0245 and the “IRF Lucia reporter activity” value (RAW-Dual [3]; [4]) was 0.13. For the same compound, the “IRF Lucia reporter activity” value (RAW-Dual [3]; agonist: LPS (TLR4) 0.1 ug/mL) was 0.129.
For `O=C(CCCCCCC(=O)N/N=C/c1ccc(N(c2ccccc2)c2ccccc2)cc1)NO` (library stock concentration (final ~1000-fold dilution): 10 mM), the “IRF Lucia reporter activity” value (RAW-Dual [3]; [4]) was 0.0199 and the “IRF Lucia reporter activity” value (RAW-Dual [3]; agonist: LPS (TLR4) 0.1 ug/mL) was 0.533.
For `CC(c1cc2ccccc2s1)N(O)C(N)=O` (stereo not given), the “IRF Lucia reporter activity” value (RAW-Dual [2]; [6]) was 0.792.
In the case of `CC(c1cc2ccccc2s1)N(O)C(N)=O` (stereo not given) (library stock concentration (final ~1000-fold dilution): 10 mM), the “IRF Lucia reporter activity” value (RAW-Dual [1]; [4]) is reported as 1.02 and the “IRF Lucia reporter activity” value (RAW-Dual [1]; agonist: LPS (TLR4) 0.1 ug/mL) is reported as 1.09.
For `O=C(/C=C/c1ccc(O)c(O)c1/C=C/c1ccc(O)c(O)c1)OC(Cc1ccc(O)c(O)c1)C(=O)O` (stereo not given) (library stock concentration (final ~1000-fold dilution): 10 mM), the “IRF Lucia reporter activity” value (RAW-Dual [1]; [4]) was 0.598 and the “IRF Lucia reporter activity” value (RAW-Dual [1]; agonist: LPS (TLR4) 0.1 ug/mL) was 0.896.
With `CC1=C(C(=O)OC2CCCCC2)C(c2ccc([N+](=O)[O-])cc2)C2=C(CC(C)(C)CC2=O)N1` (stereo not given) the “IRF Lucia reporter activity” value (RAW-Dual [2]; [6]) was 0.232.
With `CC1=C(C(=O)OC2CCCCC2)C(c2ccc([N+](=O)[O-])cc2)C2=C(CC(C)(C)CC2=O)N1` (stereo not given) (library stock concentration (final ~1000-fold dilution): 10 mM) the “IRF Lucia reporter activity” value (RAW-Dual [1]; [4]) was 0.0154 and the “IRF Lucia reporter activity” value (RAW-Dual [1]; agonist: LPS (TLR4) 0.1 ug/mL) was 0.185.
With `NC(=O)c1ccc(-c2nc(-c3ccc4c(c3)OCO4)c(-c3ccccn3)[nH]2)cc1` (library stock concentration (final ~1000-fold dilution): 10 mM) the “IRF Lucia reporter activity” value (RAW-Dual [1]; [4]) was 0.666 and the “IRF Lucia reporter activity” value (RAW-Dual [1]; agonist: LPS (TLR4) 0.1 ug/mL) was 0.843.
`NC(=O)c1ccc(-c2nc(-c3ccc4c(c3)OCO4)c(-c3ccccn3)[nH]2)cc1` was tested, and the “IRF Lucia reporter activity” value (RAW-Dual [2]; [6]) was 0.99.
`COCCCOc1cc(CC(CC(N)C(O)CC(C(=O)NCC(C)(C)C(N)=O)C(C)C)C(C)C)ccc1OC` (stereo not given) (library stock concentration (final ~1000-fold dilution): 10 mM) was tested, and the “IRF Lucia reporter activity” value (RAW-Dual [1]; [4]) was 0.991 and 1.01 and the “IRF Lucia reporter activity” value (RAW-Dual [1]; agonist: LPS (TLR4) 0.1 ug/mL) was 0.869 and 1.06.
For `CN(C)C/C=C/C(=O)Nc1cc2c(Nc3ccc(F)c(Cl)c3)ncnc2cc1OC1CCOC1` (stereo not given) (library stock concentration (final ~1000-fold dilution): 10 mM), the “IRF Lucia reporter activity” value (RAW-Dual [3]; [4]) was 0.0236 and the “IRF Lucia reporter activity” value (RAW-Dual [3]; agonist: LPS (TLR4) 0.1 ug/mL) was 0.032.
With `CN(C)C/C=C/C(=O)Nc1cc2c(Nc3ccc(F)c(Cl)c3)ncnc2cc1OC1CCOC1` (stereo not given) the “IRF Lucia reporter activity” value (RAW-Dual [2]; [5]) was 0.0551.
In the case of `COc1ccc(C2Sc3ccccc3N(CCN(C)C)C(=O)C2OC(C)=O)cc1.Cl` (stereo not given) (library stock concentration (final ~1000-fold dilution): 10 mM), the “IRF Lucia reporter activity” value (RAW-Dual [1]; [4]) is reported as 1.01 and the “IRF Lucia reporter activity” value (RAW-Dual [1]; agonist: LPS (TLR4) 0.1 ug/mL) is reported as 1.08.
In the case of `COc1ccc(C2Sc3ccccc3N(CCN(C)C)C(=O)C2OC(C)=O)cc1.Cl` (stereo not given), the “IRF Lucia reporter activity” value (RAW-Dual [2]; [6]) is reported as 0.818.
With `CC(C)CC(NC(=O)C(CCc1ccccc1)NC(=O)CN1CCOCC1)C(=O)NC(Cc1ccccc1)C(=O)NC(CC(C)C)C(=O)C1(C)CO1` (stereo not given) the “IRF Lucia reporter activity” value (RAW-Dual [2]; [6]) was 1.57.
For `CC(C)CC(NC(=O)C(CCc1ccccc1)NC(=O)CN1CCOCC1)C(=O)NC(Cc1ccccc1)C(=O)NC(CC(C)C)C(=O)C1(C)CO1` (stereo not given) (library stock concentration (final ~1000-fold dilution): 10 mM), the “IRF Lucia reporter activity” value (RAW-Dual [1]; [4]) was 1.34 and the “IRF Lucia reporter activity” value (RAW-Dual [1]; agonist: LPS (TLR4) 0.1 ug/mL) was 0.995.
`Nc1nc(Cl)nc2c1ncn2C1OC(CO)C(O)C1F` (stereo not given) (library stock concentration (final ~1000-fold dilution): 10 mM) was tested, and the “IRF Lucia reporter activity” value (RAW-Dual [3]; [4]) was 0.753 and the “IRF Lucia reporter activity” value (RAW-Dual [3]; agonist: LPS (TLR4) 0.1 ug/mL) was 1.
With `Nc1nc(Cl)nc2c1ncn2C1OC(CO)C(O)C1F` (stereo not given) the “IRF Lucia reporter activity” value (RAW-Dual [2]; [5]) was 0.85.
`COc1cc(/C=C/C(=O)O)ccc1O` (library stock concentration (final ~1000-fold dilution): 10 mM) was tested, and the “IRF Lucia reporter activity” value (RAW-Dual [1]; [4]) was 1.19 and the “IRF Lucia reporter activity” value (RAW-Dual [1]; agonist: LPS (TLR4) 0.1 ug/mL) was 1.06.
For `O=C(NC1CCOCC1)c1ccc(-c2cc(-c3c[nH]nc3-c3ccccn3)ccn2)cc1` (library stock concentration (final ~1000-fold dilution): 10 mM), the “IRF Lucia reporter activity” value (RAW-Dual [1]; [4]) was 0.591 and the “IRF Lucia reporter activity” value (RAW-Dual [1]; agonist: LPS (TLR4) 0.1 ug/mL) was 0.823.
`O=C(NC1CCOCC1)c1ccc(-c2cc(-c3c[nH]nc3-c3ccccn3)ccn2)cc1` was tested, and the “IRF Lucia reporter activity” value (RAW-Dual [2]; [6]) was 0.899.
For `CC(C)C(C(=O)O)N1C(=O)/C(=C/c2ccc(Br)cc2)SC1=S` (stereo not given) (library stock concentration (final ~1000-fold dilution): 10 mM), the “IRF Lucia reporter activity” value (RAW-Dual [1]; [4]) was 0.747 and the “IRF Lucia reporter activity” value (RAW-Dual [1]; agonist: LPS (TLR4) 0.1 ug/mL) was 1.58.
In the case of `COC1=CC(=O)CC(C)C12Oc1c(Cl)c(OC)cc(OC)c1C2=O` (stereo not given), the “IRF Lucia reporter activity” value (RAW-Dual [2]; [6]) is reported as 1.39.
In the case of `COC1=CC(=O)CC(C)C12Oc1c(Cl)c(OC)cc(OC)c1C2=O` (stereo not given) (library stock concentration (final ~1000-fold dilution): 10 mM), the “IRF Lucia reporter activity” value (RAW-Dual [1]; [4]) is reported as 1.74 and the “IRF Lucia reporter activity” value (RAW-Dual [1]; agonist: LPS (TLR4) 0.1 ug/mL) is reported as 1.44.
